Consider 17 compounds from the supplement of paper PMC9446081.

Each structure is given as a SMILES string. Hit rate of the full screen: of about 39,000 compounds, about 220 (0.56%) showed activity. The list shows a part of the results.
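Note: static incubation at 37 °C against the wild-type strain, values averaged over two biological replicates.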

The subject of the assay is Escherichia coli K-12 BW25113. As to the kind of experiment: relative growth (OD600 normalised to plate interquartile mean) (fraction); higher = less growth inhibition, active = 0.2 or less. As to conditions: 50 µM; LB; incubation time: overnight (16-24 h).
Turning to `C[C@H](CO)N1C[C@H](C)[C@H](CN(C)C(=O)Nc2ccc3c(c2)OCO3)Oc2ccc(NC(=O)Cn3cnnn3)cc2C1=O`, the relative growth was inactive: 0.982.

Take `CN1C(=O)c2cc(NC(=O)c3ccc(F)c(F)c3)ccc2OC[C@@H]2O[C@H](CC(=O)N3CCOCC3)CC[C@H]21`: the relative growth is inactive: 1.02.

Regarding `COc1cccc(C#Cc2cnc3c(c2)C(=O)N([C@H](C)CO)C[C@H](C)[C@H](CN(C)C(=O)C2CCOCC2)O3)c1`, the relative growth is inactive: 0.976.

Turning to `Cc1noc(C)c1S(=O)(=O)Nc1ccc2c(c1)CC(=O)N([C@H](C)CO)C[C@H](C)[C@@H](CN(C)S(=O)(=O)c1c(C)noc1C)O2`, the relative growth is inactive: 1.01. On to `C[C@H]1CCCCO[C@H](CN(C)S(=O)(=O)c2cccs2)[C@@H](C)CN([C@@H](C)CO)C(=O)c2cc(NC(=O)c3ccccc3)ccc2O1`, for which the relative growth was inactive: 1.04. Under `CN(C)C(=O)c1ccc(-c2cccc(-c3nc(C(=O)NC4CCCCC4)cc4c3[C@H](CCO)N([S@@](=O)C(C)(C)C)C4)c2)cc1` stands inactive: 0.981; under `CCC1=C(C)CN(C(=O)NCCc2ccc(S(=O)(=O)NC(=O)NC3CCC(C)CC3)cc2)C1=O` (configuration not stated), inactive: 0.983; under `Cc1cn(CCC(=O)O)c(=O)[nH]c1=O`, inactive: 0.98. In the case of `C[C@@H]1CCCCO[C@H](CN(C)Cc2ccc(Cl)c(Cl)c2)[C@@H](C)CN([C@@H](C)CO)C(=O)c2cc(NC(=O)Nc3ccccc3)ccc2O1`, the relative growth was inactive: 1.02.

Take `C[C@H]1CN([C@@H](C)CO)C(=O)c2cccc(NS(=O)(=O)c3cn(C)cn3)c2O[C@H]1CN(C)CC1CCCCC1`: the relative growth was inactive: 0.993.

With `CC(=O)O[C@H](CC(=O)O)C[N+](C)(C)C`, the relative growth is inactive: 1.02.

Regarding `CC(C)(C)C(=O)C[n+]1ccc(C(N)=O)cc1`, the relative growth is inactive: 0.95. The figure for `CCCN(C)C[C@@H]1OCCCC[C@H](C)Oc2ccc(NC(=O)c3ccccc3)cc2C(=O)N([C@@H](C)CO)C[C@@H]1C` is inactive: 0.974; for `O=C(C[C@@H]1CC[C@@H]2[C@H](COC[C@@H](O)CN2Cc2cc(F)ccc2F)O1)N[C@@H]1CCN(Cc2ccccc2)C1` it is inactive: 1.02; for `C[C@H](CO)N1C[C@H](C)[C@@H](CN(C)C(=O)Nc2ccc3c(c2)OCO3)Oc2c(NC(=O)c3ccncc3)cccc2C1=O` it is inactive: 1.01. The figure for `COCC(=O)Nc1ccc2c(c1)C(=O)N(C)C[C@@H](OC)[C@@H](C)CN(Cc1ccccc1F)[C@@H](C)CO2` is inactive: 1.04; for `Cc1ccc(S(=O)(=O)Nc2ccc3c(c2)C(=O)N([C@@H](C)CO)C[C@H](C)[C@H](CN(C)S(=O)(=O)c2cn(C)cn2)O3)cc1` it is inactive: 0.997.
